{
  "source": "the supplement of paper PMC10600219",
  "note": "Where a name gives a salt, the structure may show the parent alone. Over roughly 2,800 compounds, “cell viability relative to vehicle” has its median near 0.98; the lowest 2% begin near 0.45. The list shows a part of the results.",
  "data": [
    {"system": "NCI-H2228 alectinib-DTP", "experiment": "cell viability relative to vehicle (fraction of vehicle); NCI-H2228 is an ALK-positive lung cancer line and DTP means drug-tolerant persister; higher = less growth inhibition", "settings": "100 nM; treatment time 6 days", "method_in_brief": "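The 3114-agent TargetMol anti-cancer compound library was tested at 100 nM for 6 days on parental NCI-H2228 cells and on persister cells derived with 1000 nM of a targeted drug for 13 days. ATP readout by the CellTiter-Glo 3D Cell Viability Assay gave cell viability relative to DMSO vehicle-treated cells.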", "values": [
      {"smiles": "C[C@]12CC[C@@H]3c4ccc(O)cc4CC[C@H]3[C@@H]1CCC2=O", "note": "[Aquacrine]", "cell viability": 1.23},
      {"smiles": "CCN(CC)CCOc1ccc(Nc2nc(-c3ccccc3NC(=O)CCN3CCN(C)CC3)nc3ccccc23)cc1", "cell viability": 1.16},
      {"smiles": "CCCCCCCCc1ccc(CCC(N)(CO)CO)cc1", "note": "[Fingolimod hydrochloride]", "cell viability": 0.92},
      {"smiles": "CCC(CC)CC1(C(=O)Nc2ccccc2SC(=O)C(C)C)CCCCC1", "note": "[Dalcetrapib]", "cell viability": 1.02},
      {"smiles": "CN1[C@@H](CC(=O)c2ccccc2)CCC[C@H]1C[C@H](O)c1ccccc1", "note": "[Lobeline hydrochloride]", "cell viability": 1.02},
      {"smiles": "Cn1cc(-c2ccc3nnc(C(F)(F)c4ccc5ncccc5c4)n3n2)cn1", "cell viability": 1.03},
      {"smiles": "c1ccc2[nH]c(-c3cscn3)nc2c1", "note": "[Thiabendazole]", "cell viability": 1.01},
      {"smiles": "CN1CC2c3ccccc3Oc3ccc(Cl)cc3C2C1", "note": "(configuration not stated) [Asenapine Maleate]", "cell viability": 0.871},
      {"smiles": "Oc1cc(CN2CCOCC2)c(O)cc1CN1CCOCC1", "cell viability": 1.05},
      {"smiles": "COC1=C2C[C@@H](C)C[C@H](OC)[C@H](O)[C@@H](C)/C=C(\\C)[C@H](OC(N)=O)[C@@H](OC)/C=C\\C=C(/C)C(=O)NC(=CC1=O)C2=O", "note": "[Geldanamycin]", "cell viability": 1},
      {"smiles": "CC1CS(=O)(=O)CCN1/N=C/c1ccc([N+](=O)[O-])o1", "note": "(configuration not stated) [Nifurtimox]", "cell viability": 1},
      {"smiles": "COC(=O)c1cc(OC)c2c(c1-c1c(CO)cc(OC)c3c1OCO3)OCO2", "note": "[Bicyclol]", "cell viability": 0.993},
      {"smiles": "COc1cc(Nc2ncc(F)c(Nc3ccc4c(n3)N(COP(=O)(O)O)C(=O)C(C)(C)O4)n2)cc(OC)c1OC", "note": "[Fostamatinib]", "cell viability": 0.812},
      {"smiles": "COc1ccc(-c2cc(=O)c3c(O)cc(O[C@@H]4O[C@H](CO[C@@H]5O[C@@H](C)[C@H](O)[C@@H](O)[C@H]5O)[C@@H](O)[C@H](O)[C@H]4O)cc3o2)cc1O", "note": "[Diosmin]", "cell viability": 1.08},
      {"smiles": "Cc1nnc(C(C)C)n1C1C[C@H]2CC[C@@H](C1)N2CC[C@H](NC(=O)C1CCC(F)(F)CC1)c1ccccc1", "note": "(stereo in doubt) [Maraviroc]", "cell viability": 0.978},
      {"smiles": "CC1=C[C@]2(O)O[C@@]3(CC2=C(C)C)[C@@H](C)CC[C@@H]13", "note": "[Curcumenol]", "cell viability": 0.982},
      {"smiles": "O=c1c2cc(O)c(O)cc2oc2cc(O)c([C@@H]3O[C@H](CO)[C@@H](O)[C@H](O)[C@H]3O)c(O)c12", "note": "[Mangiferin]", "cell viability": 1.04},
      {"smiles": "CCOc1ccc(-c2nc(-c3cccc4c3CCC4NCCO)no2)cc1OCC", "note": "(configuration not stated)", "cell viability": 0.887},
      {"smiles": "CCCS(=O)(=O)Nc1ccc(F)c(C(=O)c2c[nH]c3ncc(-c4ccc(Cl)cc4)cc23)c1F", "note": "[Vemurafenib]", "cell viability": 1.12},
      {"smiles": "C=CC(=O)N1CC/C(=C\\c2ccc(F)c([N+](=O)[O-])c2)C(=O)/C(=C/c2ccc(F)c([N+](=O)[O-])c2)C1", "cell viability": 1.07},
      {"smiles": "O=C(Nc1c(Cl)cncc1Cl)c1ccc(OC(F)F)c(OCC2CC2)c1", "note": "[Roflumilast]", "cell viability": 0.981},
      {"smiles": "O=C(O)c1cc(-c2ccc(F)cc2F)ccc1O", "note": "[Diflunisal]", "cell viability": 0.927},
      {"smiles": "C[C@@H]1O[C@@H](O[C@H]2[C@H](Oc3cc(O)c(C(=O)CCc4ccc(O)cc4)c(O)c3)O[C@H](CO)[C@@H](O)[C@@H]2O)[C@H](O)[C@H](O)[C@H]1O", "note": "[Naringin dihydrochalcone]", "cell viability": 1.06},
      {"smiles": "CCCCNC(=O)NS(=O)(=O)c1ccc(C)cc1", "note": "[Tolbutamide]", "cell viability": 1.12},
      {"smiles": "O[C@H]1[C@H]2c3cc4c(cc3CN3CCC(=C[C@@H]1O)[C@H]23)OCO4", "note": "[Lycorine chloride]", "cell viability": 0.966},
      {"smiles": "CN(C)C1CCN(C(=O)c2ccc(NC(=O)Nc3ccc(-c4nc(N5CCOCC5)nc(N5CCOCC5)n4)cc3)cc2)CC1", "note": "[Gedatolisib]", "cell viability": 0.385},
      {"smiles": "O=S(=O)(O)CCS", "note": "[Mesna]", "cell viability": 0.93},
      {"smiles": "CCOc1ccccc1OCCN[C@H](C)Cc1ccc(OC)c(S(N)(=O)=O)c1", "note": "[Tamsulosin hydrochloride]", "cell viability": 1.01},
      {"smiles": "O=C(O)c1cc2ccccc2oc1=O", "note": "[Coumarin-3-carboxylic acid]", "cell viability": 1.16},
      {"smiles": "C[C@@H](CN1CC(=O)NC(=O)C1)N1CC(=O)NC(=O)C1", "note": "[Dexrazoxane HCl]", "cell viability": 0.89},
      {"smiles": "CNCCC(Oc1ccc(C(F)(F)F)cc1)c1ccccc1", "note": "(configuration not stated) [Fluoxetine]", "cell viability": 1.13},
      {"smiles": "N=C(N)NCCC[C@H](N)C(=O)O", "note": "[L-arginine monohydrochloride]", "cell viability": 1.19},
      {"smiles": "Cn1nccc1Nc1nccc(-c2ccn([C@H](CO)c3ccc(Cl)c(F)c3)c(=O)c2)n1", "note": "[Ravoxertinib]", "cell viability": 0.884},
      {"smiles": "CN(C)Cc1cccc(N/C(=C2\\C(=O)Nc3cc(C(N)=O)ccc32)c2ccccc2)c1", "cell viability": 0.967},
      {"smiles": "Cc1cnc(CNC(=O)c2c(=O)c3ccc(N4CCCN(C)CC4)nc3n3c2sc2ccccc23)cn1", "cell viability": 0.809},
      {"smiles": "O=C(Nc1ccccc1C(=O)Nc1ccc(CCO)cc1)c1ccc([N+](=O)[O-])cc1", "cell viability": 0.988},
      {"smiles": "C=C1C(=O)O[C@@H]2C[C@@]3(C)CCC[C@H](C)C3=C[C@H]12", "note": "[Helenine]", "cell viability": 0.903}
    ]}
  ]
}
